Here are results for 153 variants from a collection of fitness landscapes (doi:10.1126/science.1257360).

B1: PhoQ; a variant is named by its letters at X, in order, P23837 (parent)
chain: MKKLLRLFFPLSLRVRFLLATAAVVLVLSLAYGMVALIGYSVSFDKTTFRLLRGESNLFYTLAKWENNKLHVELPENIDKQSPTMTLIYDENGQLLWAQRDVPWLMKMIQPDWLKSNGFHEIEADVNDTSLLLSGDHSIQQQLQEVREDDDDAEMTHSVAVNVYPATSRMPKLTIVVVDTIPVELKSSYMVWSWFIYVLSANLLLVIPLLWVAAWWSLRPIEALAKEVRELEEHNRELLNPATTRELTSLVRNLNRLLKSERERYDKYRTTLTDLTHSLKTPLXXLQXXLRSLRSEKMSVSDAEPVMLEQISRISQQIGYYLHRASMRGGTLLSRELHPVAPLLDNLTSALNKVYQRKGVNISLDISPEISFVGEQNDFVEVMGNVLDNACKYCLEFVEISARQTDEHLYIVVEDDGPGIPLSKREVIFDRGQRVDTLRPGQGVGLAVAREITEQYEGKIVAGESMLGGARMEVIFGRQHSAPKDE

Some of the results follow. Bounds are passed on as bounds.

The test covers variants of B1. Description: enrichment ratio after two sorts for PhoP signalling (ratio (wild type AVST 3.29)); higher = more functional. Particulars: with PhoP (E. coli).
In the case of NNMV, the enrichment ratio was 6.27.

As for TAMR, the enrichment ratio was determined as 2.69.

NSFL: the enrichment ratio was no more than 0.25.

With TSHA, the enrichment ratio stood at 3.

Turning to YNNN, the enrichment ratio was no more than 0.25.

Turning to YCHH, the enrichment ratio is no more than 0.25.

On to QTAV, for which the enrichment ratio is no more than 0.25.

Take GRSK: the enrichment ratio is no more than 0.25.

TMWV: the enrichment ratio is no more than 0.25.

Take KNAP: the enrichment ratio is no more than 0.25.

Regarding WGLK, the enrichment ratio was no more than 0.25.

As to ASML, the enrichment ratio is 10.2.

For the variant EQFA, the enrichment ratio was no more than 0.25.

Take SKWM: the enrichment ratio is no more than 0.25.

Turning to YHKL, the enrichment ratio was no more than 0.25.

As for KYTG, the enrichment ratio was no more than 0.25.

On to VQPS, for which the enrichment ratio is no more than 0.25.

Regarding EDCT, the enrichment ratio is no more than 0.25.

Take RTKG: the enrichment ratio is no more than 0.25.

Consider PPMY, for which the enrichment ratio was no more than 0.25.

QFYN: the enrichment ratio was no more than 0.25.

Turning to AYDF, the enrichment ratio was no more than 0.25.

As to DEVR, the enrichment ratio was no more than 0.25.

For VLMC, the enrichment ratio was no more than 0.25.

On to ITRE, for which the enrichment ratio was no more than 0.25.

As for SIVT, the enrichment ratio was 4.11.

Take LTEV: the enrichment ratio is no more than 0.25.

For the variant LSLD, the enrichment ratio is no more than 0.25.

Consider PYIQ, for which the enrichment ratio is no more than 0.25.

Take LNGF: the enrichment ratio was no more than 0.25.

NIPH: the enrichment ratio is no more than 0.25.

Take QVLN: the enrichment ratio was no more than 0.25.

For TECR, the enrichment ratio turned out to be 16.3.

Turning to EAGL, the enrichment ratio was no more than 0.25.

On to HYYT, for which the enrichment ratio was no more than 0.25.

Regarding LENW, the enrichment ratio was no more than 0.25.

For the variant RWYR, the enrichment ratio is no more than 0.25.

For the variant QASV, the enrichment ratio worked out at 2.44.

As to RAEQ, the enrichment ratio was no more than 0.25.

Consider VITG, for which the enrichment ratio is no more than 0.25.

Take NQEY: the enrichment ratio is no more than 0.25.

As for HKMI, the enrichment ratio was no more than 0.25.

Consider MKGA, for which the enrichment ratio is no more than 0.25.

Regarding LAHD, the enrichment ratio was no more than 0.25.

For AGRY, the enrichment ratio was no more than 0.25.

For HDMN, the enrichment ratio is no more than 0.25.

Turning to WFTI, the enrichment ratio was no more than 0.25.

For the variant SNSA, the enrichment ratio was 13.1.

On to LGVH, for which the enrichment ratio was no more than 0.25.

Turning to NPSW, the enrichment ratio was no more than 0.25.

HKHM: the enrichment ratio is no more than 0.25.

On to HPTG, for which the enrichment ratio was no more than 0.25.

Regarding DATA, the enrichment ratio is no more than 0.25.

Consider QKIN, for which the enrichment ratio is no more than 0.25.

For the variant ASKP, the enrichment ratio was no more than 0.25.

As for AFCM, the enrichment ratio was no more than 0.25.

Turning to SYPM, the enrichment ratio was no more than 0.25.

Take NPVF: the enrichment ratio is no more than 0.25.

For the variant ETHQ, the enrichment ratio was no more than 0.25.

As for HCFC, the enrichment ratio was no more than 0.25.

With GDPI, the enrichment ratio was no more than 0.25.

Take LQQF: the enrichment ratio is no more than 0.25.

Take HARL: the enrichment ratio is no more than 0.25.

As to PAIW, the enrichment ratio was no more than 0.25.

Regarding WEMD, the enrichment ratio was no more than 0.25.

For the variant IERF, the enrichment ratio was no more than 0.25.

For the variant TSFA, the enrichment ratio is 1.87.

For the variant YNPA, the enrichment ratio was no more than 0.25.

With QEMV, the enrichment ratio was determined as 8.71.

Consider RQAI, for which the enrichment ratio is no more than 0.25.

As for YKKL, the enrichment ratio was no more than 0.25.

As to NDVL, the enrichment ratio is no more than 0.25.

As for MYMR, the enrichment ratio was no more than 0.25.

For the variant KDSS, the enrichment ratio was no more than 0.25.

As for FGVK, the enrichment ratio is no more than 0.25.

Take GRIM: the enrichment ratio is no more than 0.25.

As for GCGG, the enrichment ratio was no more than 0.25.

As to SEEY, the enrichment ratio is no more than 0.25.

On to HALY, for which the enrichment ratio is no more than 0.25.

With THYR, the enrichment ratio is no more than 0.25.

HAAQ: the enrichment ratio was no more than 0.25.

GNSM: the enrichment ratio came out at 10.6.

As to PSCI, the enrichment ratio is no more than 0.25.

On to IGCG, for which the enrichment ratio was no more than 0.25.

In the case of LHAK, the enrichment ratio was no more than 0.25.

For the variant LNPT, the enrichment ratio is no more than 0.25.

In the case of HDND, the enrichment ratio was no more than 0.25.

On to NRRH, for which the enrichment ratio was no more than 0.25.

EMYG: the enrichment ratio was no more than 0.25.

Take TRFK: the enrichment ratio was no more than 0.25.

As for FMMF, the enrichment ratio is no more than 0.25.

Regarding PKME, the enrichment ratio is no more than 0.25.

For the variant QTRN, the enrichment ratio is no more than 0.25.

Take TLDI: the enrichment ratio is no more than 0.25.

On to HHKL, for which the enrichment ratio is no more than 0.25.

Take HWGF: the enrichment ratio was no more than 0.25.

In the case of VYDE, the enrichment ratio is no more than 0.25.

Consider FWHE, for which the enrichment ratio is no more than 0.25.

For the variant TAHA, the enrichment ratio amounted to 0.718.

For WRIL, the enrichment ratio is no more than 0.25.

As to LAWL, the enrichment ratio stood at 0.669.

For the variant QVKK, the enrichment ratio is no more than 0.25.

Consider AVTS, for which the enrichment ratio worked out at 4.52.

As to RRIT, the enrichment ratio is no more than 0.25.

As for GALD, the enrichment ratio is no more than 0.25.

As for RCVW, the enrichment ratio was no more than 0.25.

In the case of RELW, the enrichment ratio is no more than 0.25.

Consider LWWA, for which the enrichment ratio was no more than 0.25.

As to MTLI, the enrichment ratio was 10.4.

For the variant DFEH, the enrichment ratio was no more than 0.25.

Turning to ISKL, the enrichment ratio was no more than 0.25.

As to LSVQ, the enrichment ratio was no more than 0.25.

Consider LMQF, for which the enrichment ratio is no more than 0.25.

On to WVRN, for which the enrichment ratio is no more than 0.25.

For the variant KPIK, the enrichment ratio was no more than 0.25.

On to ANIK, for which the enrichment ratio was no more than 0.25.

On to RLEM, for which the enrichment ratio was no more than 0.25.

On to NHMC, for which the enrichment ratio was no more than 0.25.

With DMAM, the enrichment ratio was no more than 0.25.

On to IEMI, for which the enrichment ratio is no more than 0.25.

Regarding RSSV, the enrichment ratio was no more than 0.25.

As for KRNY, the enrichment ratio is no more than 0.25.

Consider FNKC, for which the enrichment ratio was no more than 0.25.

For the variant GTNS, the enrichment ratio was no more than 0.25.

For the variant DPAI, the enrichment ratio is no more than 0.25.

With EGHF, the enrichment ratio is no more than 0.25.

As to GHMD, the enrichment ratio was no more than 0.25.

Turning to PILM, the enrichment ratio was no more than 0.25.

Turning to QCQM, the enrichment ratio was no more than 0.25.

In the case of TDVT, the enrichment ratio was no more than 0.25.

HHLL: the enrichment ratio is no more than 0.25.

Turning to IRIT, the enrichment ratio is no more than 0.25.

For the variant MSVL, the enrichment ratio came to 8.77.

Consider DTLW, for which the enrichment ratio was no more than 0.25.

With VFKV, the enrichment ratio is no more than 0.25.

On to YSDY, for which the enrichment ratio is no more than 0.25.

In the case of RLEY, the enrichment ratio was no more than 0.25.

Take IPME: the enrichment ratio was no more than 0.25.

As to YDTT, the enrichment ratio was no more than 0.25.

Consider PSQF, for which the enrichment ratio was no more than 0.25.

For IQYG, the enrichment ratio is no more than 0.25.

With LCPG, the enrichment ratio is no more than 0.25.

LLTK: the enrichment ratio was no more than 0.25.

On to LIQM, for which the enrichment ratio is no more than 0.25.

Regarding PWHG, the enrichment ratio was no more than 0.25.

On to VWGI, for which the enrichment ratio was no more than 0.25.

Take NPMK: the enrichment ratio is no more than 0.25.

Regarding EKHR, the enrichment ratio is no more than 0.25.

With VHMC, the enrichment ratio was no more than 0.25.

With YQRE, the enrichment ratio is no more than 0.25.

As to KSPV, the enrichment ratio is no more than 0.25.

Take TWSA: the enrichment ratio was no more than 0.25.

IMVR: the enrichment ratio was no more than 0.25.
